# According to a collection of fitness landscapes (doi:10.1126/science.1257360):
# This is one part of the list.
# B1: PhoQ; a variant is named by its letters at X, in order, P23837 (parent)
# chain: MKKLLRLFFPLSLRVRFLLATAAVVLVLSLAYGMVALIGYSVSFDKTTFRLLRGESNLFYTLAKWENNKLHVELPENIDKQSPTMTLIYDENGQLLWAQRDVPWLMKMIQPDWLKSNGFHEIEADVNDTSLLLSGDHSIQQQLQEVREDDDDAEMTHSVAVNVYPATSRMPKLTIVVVDTIPVELKSSYMVWSWFIYVLSANLLLVIPLLWVAAWWSLRPIEALAKEVRELEEHNRELLNPATTRELTSLVRNLNRLLKSERERYDKYRTTLTDLTHSLKTPLXXLQXXLRSLRSEKMSVSDAEPVMLEQISRISQQIGYYLHRASMRGGTLLSRELHPVAPLLDNLTSALNKVYQRKGVNISLDISPEISFVGEQNDFVEVMGNVLDNACKYCLEFVEISARQTDEHLYIVVEDDGPGIPLSKREVIFDRGQRVDTLRPGQGVGLAVAREITEQYEGKIVAGESMLGGARMEVIFGRQHSAPKDE
# Variants of: B1
# Assay: enrichment ratio after two sorts for PhoP signalling (ratio (wild type AVST 3.29)); higher = more functional
# Details: with PhoP (E. coli)
row,Variant,enrichment ratio
1,INKE,≤ 0.25
2,KTKI,≤ 0.25
3,YKKC,≤ 0.25
4,HFYI,≤ 0.25
5,GLKG,≤ 0.25
6,RETM,≤ 0.25
7,GQGF,≤ 0.25
8,SGLW,≤ 0.25
9,AQVA,14.1
10,IINY,≤ 0.25
11,HPPF,≤ 0.25
12,FVQR,≤ 0.25
13,QDWV,≤ 0.25
14,NLTH,≤ 0.25
15,MPDS,≤ 0.25
16,WNFR,≤ 0.25
17,PHVK,≤ 0.25
18,EVGC,≤ 0.25
19,YQHM,≤ 0.25
20,IMWW,≤ 0.25
21,VTTD,≤ 0.25
22,WRTH,1.58
23,YAPL,≤ 0.25
24,VEPN,≤ 0.25
25,AQWC,≤ 0.25
26,QNPT,≤ 0.25

row,Variant,enrichment ratio
1,NEIR,≤ 0.25
2,VRCV,≤ 0.25
3,FEWV,≤ 0.25
4,HWGQ,≤ 0.25
5,QTMY,≤ 0.25
6,DRTC,≤ 0.25
7,CYSH,≤ 0.25
8,TMDC,≤ 0.25
9,WMFP,≤ 0.25
10,GETD,≤ 0.25
11,HIWN,≤ 0.25
12,NHIM,≤ 0.25
13,LEPW,≤ 0.25
14,MDLW,≤ 0.25
15,FQPF,≤ 0.25
16,LYMV,≤ 0.25
17,RYEP,≤ 0.25
18,KLIK,≤ 0.25
19,ICGK,≤ 0.25
20,FKLD,≤ 0.25
21,TYAD,≤ 0.25
22,LFTH,≤ 0.25
23,FCHN,≤ 0.25
24,DLEM,≤ 0.25
25,LLVI,≤ 0.25
26,ACIR,1.38

row,Variant,enrichment ratio
1,HPPS,≤ 0.25
2,SFIY,≤ 0.25
3,KCQI,≤ 0.25
4,SWVM,≤ 0.25
5,CHYS,≤ 0.25
6,SYMW,≤ 0.25
7,EGRY,≤ 0.25
8,SRQK,≤ 0.25
9,HSGN,≤ 0.25
10,TGIM,≤ 0.25
11,RQCE,≤ 0.25
12,IRKK,≤ 0.25
13,IFLL,≤ 0.25
14,SKCP,≤ 0.25
15,MMFI,≤ 0.25
16,QKPD,≤ 0.25
17,DPFV,≤ 0.25
18,HTMA,≤ 0.25
19,QGHQ,≤ 0.25
20,LCPM,≤ 0.25
21,HPWW,≤ 0.25
22,AHHA,≤ 0.25
23,QNDN,≤ 0.25
24,FCKE,≤ 0.25
25,PHGK,≤ 0.25
26,HMTE,≤ 0.25

row,Variant,enrichment ratio
1,IQIE,≤ 0.25
2,FTRE,≤ 0.25
3,IDMH,≤ 0.25
4,YVHN,≤ 0.25
5,TCEC,≤ 0.25
6,QTTP,≤ 0.25
7,QMCV,≤ 0.25
8,HWQQ,≤ 0.25
9,AKDW,≤ 0.25
10,MQKH,≤ 0.25
11,NIAI,≤ 0.25
12,LQLY,≤ 0.25
13,VIKC,≤ 0.25
14,SEID,≤ 0.25
15,TFCS,1.98
16,MNRF,≤ 0.25
17,YPLY,≤ 0.25
18,MIEG,≤ 0.25
19,PAPN,≤ 0.25
20,AKHM,≤ 0.25
21,TYNL,3.68
22,RFNE,≤ 0.25
23,RRSH,1.39
24,DQPL,≤ 0.25
25,SLNG,0.339
26,QGFI,≤ 0.25

row,Variant,enrichment ratio
1,QCVF,≤ 0.25
2,MVRF,≤ 0.25
3,DIVQ,≤ 0.25
4,PDMC,≤ 0.25
5,KFEV,≤ 0.25
6,VWMR,≤ 0.25
7,FQKT,≤ 0.25
8,HHSW,≤ 0.25
9,VWMP,≤ 0.25
10,AVTV,12.1
11,PRCH,≤ 0.25
12,QNRQ,≤ 0.25
13,VCTY,≤ 0.25
14,TNHM,≤ 0.25
15,WTSC,≤ 0.25
16,LCPN,≤ 0.25
17,KNVH,≤ 0.25
18,RNPD,≤ 0.25
19,FQLE,4.96
20,IYKW,≤ 0.25
21,TCEF,13.2
22,DPNG,≤ 0.25
23,DRYI,≤ 0.25
24,FKYW,≤ 0.25
25,YWFY,≤ 0.25
26,DSIG,≤ 0.25

row,Variant,enrichment ratio
1,YQQH,≤ 0.25
2,GWGH,≤ 0.25
3,LIDD,≤ 0.25
4,FTYY,≤ 0.25
5,NMPT,≤ 0.25
6,PQKM,≤ 0.25
7,QDWM,≤ 0.25
8,ISSY,≤ 0.25
9,MDIG,≤ 0.25
10,GKRM,≤ 0.25
11,GIGC,1.69
12,ELLL,2.43
13,IKMM,≤ 0.25
14,DHGW,≤ 0.25
15,ELVH,≤ 0.25
16,SKIL,2.84
17,FPPP,≤ 0.25
18,SKVI,9.59
19,GASC,≤ 0.25
20,DSGH,≤ 0.25
21,EKHP,≤ 0.25
22,PGLE,≤ 0.25
23,ANVE,≤ 0.25
